# From the supplement of paper PMC3334620
# The full ranking holds about 33,000 sequences; the median of “E-score (-0.5 to 0.5)” is about -0.054, and the highest 2% start at about 0.39. This is one part of the list.
# Biological target: Ylr278c (UniProt Q05854)
# Assay: PBM E-score (8-mer binding enrichment) (E-score (-0.5 to 0.5)); higher = stronger / more preferred TF binding; most listed sequences are background and not binding sites
# Conditions: protein concentration: 200 nM; construct: GST-DNA-binding domain
# Method in brief: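 Universal all-10-mer Agilent arrays, fresh or stripped once, were converted to double-stranded form by primer extension. GST-tagged yeast transcription factors from PURExpress in vitro transcription/translation, full-length or DNA-binding domain only, were applied at about 100-200 nM and detected with fluorescent anti-GST. After masliner normalisation, the Universal PBM Analysis Suite scored each ungapped eight-base word together with its reverse complement by E-score.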
row,Sequence,PBM E-score
1,AACGAGTT,-0.0999
2,CCCATTGA,0.0934
3,GCCATCAC,-0.14
4,GCACTCTA,-0.0847
5,ATGTATGA,-0.215
6,CGAGGCTA,0.0173
7,CAAGTAAC,-0.166
8,AGTCAAAC,0.00399
9,GCAAACAA,-0.1
10,CTCGTTAA,-0.0559
11,AATTCGGA,0.449
12,CAACGTTG,-0.0482
13,GGCGTCCA,0.00771
14,ATCTTTGC,-0.0515
15,ACGTTTAA,-0.219
16,ACATAGGG,-0.225
17,GCTTTACA,0.0914
18,CGGATCAG,0.218
19,GATAAACA,0.035
20,ACGGGTAT,0.0239
21,CAACATCG,0.0687
22,GGCAACTA,-0.025
23,CAGGCGCC,0.046
24,GCCATAAC,-0.311
25,AAGCGCAC,0.117

row,Sequence,PBM E-score
1,CTTGATAC,-0.28
2,GAGCACTC,-0.0164
3,GGACACCA,0.0663
4,ATGTTAAG,0.0308
5,ACGAGCTA,-0.128
6,GAAATCCC,0.254
7,GGTCTGGA,-0.159
8,ATCGCCAC,-0.0201
9,AGGATTAC,0.00998
10,CTTCCACA,-0.151
11,CCTAAAAC,-0.125
12,TACTCATA,-0.285
13,AACGAAAC,-0.0816
14,GGCGTCAC,0.00547
15,GGGCCCTA,-0.129
16,AAACTTTG,-0.0242
17,AACATCTC,0.0706
18,GCTCCAAC,0.0437
19,GTAACCTA,0.0773
20,ACGATCAG,-0.29
21,CTGAGCCA,-0.102
22,TGAAAGCA,-0.136
23,CTGTCTCC,0.0913
24,ACGCTCCT,-0.237
25,TACAGGTA,-0.218

row,Sequence,PBM E-score
1,AAATCACT,-0.17
2,TGCTGAAA,-0.0949
3,AGCGCATC,-0.0458
4,CATCGCGG,0.231
5,ATGCCATG,-0.155
6,CGAGACGA,0.017
7,GGCGCCCC,0.148
8,ATTAGGCA,-0.151
9,AGGAATAT,0.106
10,AAACCGGC,0.356
11,CCTATCAC,-0.119
12,GCTTGCAC,-0.0733
13,CAGGTTGC,-0.1
14,CCGGCTAG,0.234
15,GGCCACCC,0.078
16,GGGAGAAA,0.0906
17,GTGTATTA,-0.013
18,AGTGCACT,0.121
19,ACTGAACT,-0.162
20,AGGCTGCA,-0.242
21,GACCTATA,0.059
22,CGCAGCCC,0.173
23,GGACAGCC,0.176
24,GGCCGACA,0.248
25,AGCGGCCG,0.249

row,Sequence,PBM E-score
1,CGGCTTCC,0.244
2,AACCCTCA,-0.165
3,GCGCTAGC,-0.164
4,CACATTGG,-0.146
5,ATCAATCA,-0.119
6,CGGCTGAA,0.142
7,ATCTGGAG,0.0676
8,TAGGTTGA,-0.212
9,CCGTGTGC,0.268
10,GCAAGACC,0.0338
11,CCTTCGGC,0.112
12,CGTCCTAC,0.0768
13,TCCTTACA,-0.0094
14,ATAGTAAT,-0.00108
15,AGACCAGG,-0.143
16,AGTTACAA,0.127
17,ATCTGGAA,-0.0874
18,CCGTACAC,0.0043
19,CAAGGGGG,-0.373
20,GCCACGCA,-0.115
21,AAGTGTGA,-0.278
22,CACGCGTA,-0.00675
23,AATGCTGC,-0.0877
24,CTGTACCA,-0.247
25,ATGACGTG,-0.239

row,Sequence,PBM E-score
1,ACGAAGCC,0.0447
2,GACCACGA,-0.179
3,TCTATGCA,-0.232
4,ACACTAAG,-0.295
5,GTGCTAGA,-0.277
6,GGAAAAAC,0.275
7,GGCATTCA,0.139
8,GCAGTGAC,0.0164
9,AACTAGAT,-0.00368
10,GACGGCGC,0.169
11,AGCGCAAA,-0.0731
12,GAACATCC,0.224
13,CCCATACC,-0.0976
14,CGTCAAAC,-0.0883
15,AACCGCTA,-0.104
16,ATCAATAA,-0.0629
17,CGCTGCGC,0.0667
18,AAGTCGAA,-0.299
19,CTTTGAAA,-0.201
20,TCAGTCCA,-0.366
21,GCTGTCCA,-0.0953
22,AACCAATT,-0.0198
23,AAGCTAGT,-0.188
24,CCAGTTCC,0.222
25,TATAGCCA,-0.109

row,Sequence,PBM E-score
1,CGGCGGCA,0.281
2,CGGCAGTC,0.183
3,ATACGTTG,-0.301
4,CGCATCAC,-0.0929
5,ATCTCGCC,0.109
6,TCCGGCCA,0.409
7,AAAGATCT,-0.111
8,TACTTATA,-0.134
9,CATGTCGA,-0.0566
10,TAATTTGA,-0.11
11,AAACCTTT,0.0364
12,ACTAGTGG,-0.0388
13,AGTCTGTC,-0.198
14,AGAGACGG,-0.0308
15,AGGTGTGA,-0.104
16,ATAGCAAC,-0.0535
17,AAGAGGGA,-0.297
18,CGACGCAA,0.114
19,TCGCCGCA,0.29
20,AACTTCTA,-0.231
21,TAATACCA,0.0433
22,AGCGTCGG,0.295
23,ACAGAGAG,-0.355
24,CCAGTTTA,-0.105
25,CGCAGGCG,-0.0383

row,Sequence,PBM E-score
1,ACGAGACC,0.0143
2,AGCGATAG,-0.158
3,CCATGTTA,-0.141
4,CCTCGTAA,-0.00886
5,TAGGCGAA,-0.238
6,AGGACCTA,0.0121
7,CAGGGCGG,0.21
8,AACAACGA,-0.106
9,GCGGTCAC,0.0131
10,AGGTCACA,-0.213
11,AATGACAA,-0.115
12,GATCGCCC,0.0296
13,ACTAGGTC,-0.0285
14,CGATTTAC,0.114
15,AATGTTTA,-0.134
16,ATTACCCA,-0.056
17,TCTTATCA,0.0183
18,CGACGGCC,0.108
19,ACGAGCCG,0.0569
20,ACAAGCTA,-0.277
21,ACGGGGTG,0.0357
22,TGAATTAA,-0.0358
